# From the supplement of paper PMC8728848
# The list shows a part of the results.
# B1: PFL (Pseudomonas fluorescens) (protein)
# chain: MSKYAVANQWGGSSAPWHPGGTWVLGARDNQNVVAIEIKSGDGGKSFTGTMTYAGEGPIGFKAQRTGQNQYNVENQWGGNDAPWHPGGKWVIGGRDNQNVIALSVTSSDGGKNLSGTNTYANEGPIGFRGQIE
# Key:
# Test in all cases: glycan array binding signal (z-score within array); higher = stronger binding
# Conditions in all cases: glycan notation: IUPAC condensed, linker removed
# [1] = molecular target: Fuc(a1-2)[GalNAc(a1-3)]Gal(b1-3)GlcNAc(b1-3)GalNAc
# Procedure, shortened: (§1)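 The Consortium for Functional Glycomics database supplied 3228 glycan arrays, of which those lacking an available protein sequence were dropped. The binding signal, a within-array Z-score, was averaged across arrays of the same protein sequence and across linkers. Negative scores can be read as non-binding.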
# [2] = molecular target: Fuc(a1-2)[GalNAc(a1-3)]Gal(b1-3)GlcNAc(b1-6)GalNAc
# Procedure, shortened: as §1
# [3] = molecular target: Fuc(a1-2)[GalNAc(a1-3)]Gal(b1-4)Glc
# Procedure, shortened: as §1
# [4] = molecular target: Fuc(a1-2)[GalNAc(a1-3)]Gal(b1-4)GlcNAc
# Procedure, shortened: as §1
# [5] = molecular target: Fuc(a1-2)[GalNAc(a1-3)]Gal(b1-4)GlcNAc(b1-2)Man
# Procedure, shortened: as §1
# [6] = molecular target: Fuc(a1-2)[GalNAc(a1-3)]Gal(b1-4)GlcNAc(b1-2)Man(a1-3)[Fuc(a1-2)[GalNAc(a1-3)]Gal(b1-4)GlcNAc(b1-2)Man(a1-6)]Man(b1-4)GlcNAc(b1-4)GlcNAc
# Procedure, shortened: as §1
# [7] = molecular target: Fuc(a1-2)[GalNAc(a1-3)]Gal(b1-4)GlcNAc(b1-2)Man(a1-3)[Fuc(a1-2)[GalNAc(a1-3)]Gal(b1-4)GlcNAc(b1-2)Man(a1-6)]Man(b1-4)GlcNAc(b1-4)[Fuc(a1-6)]GlcNAc
# Procedure, shortened: as §1
# [8] = molecular target: Fuc(a1-2)[GalNAc(a1-3)]Gal(b1-4)GlcNAc(b1-3)Gal(b1-4)GlcNAc
# Procedure, shortened: as §1
# [9] = molecular target: Fuc(a1-2)[GalNAc(a1-3)]Gal(b1-4)GlcNAc(b1-3)Gal(b1-4)GlcNAc(b1-3)Gal(b1-4)GlcNAc
# Procedure, shortened: as §1
# [10] = molecular target: Fuc(a1-2)[GalNAc(a1-3)]Gal(b1-4)GlcNAc(b1-3)GalNAc
# Procedure, shortened: as §1
# [11] = molecular target: Fuc(a1-2)[GalNAc(a1-3)]Gal(b1-4)GlcNAc(b1-3)[Fuc(a1-2)[GalNAc(a1-3)]Gal(b1-4)GlcNAc(b1-6)]GalNAc
# Procedure, shortened: as §1
# [12] = molecular target: Fuc(a1-2)[GalNAc(a1-3)]Gal(b1-4)GlcNAc(b1-6)GalNAc
# Procedure, shortened: as §1
# [13] = molecular target: Fuc(a1-2)[GalNAc(a1-3)]Gal(b1-4)[Fuc(a1-3)]GlcNAc
# Procedure, shortened: as §1
# [14] = molecular target: Fuc(a1-2)[GalNAc(a1-3)]Gal(b1-4)[Fuc(a1-3)]GlcNAc(b1-3)GalNAc
# Procedure, shortened: as §1
# [15] = molecular target: Fuc(a1-2)[GalNAc(a1-4)]Gal(b1-4)GlcNAc
# Procedure, shortened: as §1
# [16] = molecular target: Fuc(a1-2)[GalNAc(b1-3)]Gal
# Procedure, shortened: as §1
# Fuc(a1-3)GlcNAc = molecular target: Fuc(a1-3)GlcNAc
# Procedure, shortened: as §1
# [17] = molecular target: Fuc(a1-3)[Gal(b1-4)]Glc6S
# Procedure, shortened: as §1
# [18] = molecular target: Fuc(a1-3)[Gal(b1-4)]GlcNAc
# Procedure, shortened: as §1
# [19] = molecular target: Fuc(a1-3)[Gal(b1-4)]GlcNAc(b1-2)Man
# Procedure, shortened: as §1
# [20] = molecular target: Fuc(a1-3)[Gal(b1-4)]GlcNAc(b1-2)Man(a1-3)[Fuc(a1-3)[Gal(b1-4)]GlcNAc(b1-2)Man(a1-6)]Man(b1-4)GlcNAc(b1-4)GlcNAc
# Procedure, shortened: as §1
# [21] = molecular target: Fuc(a1-3)[Gal(b1-4)]GlcNAc(b1-2)Man(a1-3)[Fuc(a1-3)[Gal(b1-4)]GlcNAc(b1-2)Man(a1-6)]Man(b1-4)GlcNAc(b1-4)[Fuc(a1-6)]GlcNAc
# Procedure, shortened: as §1
# [22] = molecular target: Fuc(a1-3)[Gal(b1-4)]GlcNAc(b1-3)Gal(b1-3)[Fuc(a1-4)]GlcNAc
# Procedure, shortened: as §1
# [23] = molecular target: Fuc(a1-3)[Gal(b1-4)]GlcNAc(b1-3)Gal(b1-4)[Fuc(a1-3)]GlcNAc
# Procedure, shortened: as §1
# [24] = molecular target: Fuc(a1-3)[Gal(b1-4)]GlcNAc(b1-3)Gal(b1-4)[Fuc(a1-3)]GlcNAc(b1-3)Gal(b1-4)[Fuc(a1-3)]GlcNAc
# Procedure, shortened: as §1
# [25] = molecular target: Fuc(a1-3)[Gal(b1-4)]GlcNAc(b1-3)GalNAc
# Procedure, shortened: as §1
# [26] = molecular target: Fuc(a1-3)[Gal(b1-4)]GlcNAc(b1-6)GalNAc
# Procedure, shortened: as §1
# [27] = molecular target: Fuc(a1-3)[Gal(b1-4)]GlcNAc(b1-6)[Gal(b1-3)GlcNAc(b1-3)]Gal(b1-4)Glc
# Procedure, shortened: as §1
# [28] = molecular target: Fuc(a1-3)[Gal(b1-4)]GlcNAc6S
# Procedure, shortened: as §1
# [29] = molecular target: Fuc(a1-3)[Gal3S(b1-4)]Glc
# Procedure, shortened: as §1
# [30] = molecular target: Fuc(a1-3)[Gal3S(b1-4)]GlcNAc
# Procedure, shortened: as §1
# [31] = molecular target: Fuc(a1-3)[Gal3S(b1-4)]GlcNAc6S
# Procedure, shortened: as §1
# [32] = molecular target: Fuc(a1-3)[GalNAc(b1-4)]GlcNAc
# Procedure, shortened: as §1
# [33] = molecular target: Fuc(a1-3)[GalNAc(b1-4)]GlcNAc6S
# Procedure, shortened: as §1
# Fuc(a1-4)GlcNAc = molecular target: Fuc(a1-4)GlcNAc
# Procedure, shortened: as §1
# Fuc(b1-3)GlcNAc = molecular target: Fuc(b1-3)GlcNAc
# Procedure, shortened: as §1
# Gal(a1-2)Gal = molecular target: Gal(a1-2)Gal
# Procedure, shortened: as §1
# Gal(a1-3)Gal = molecular target: Gal(a1-3)Gal
# Procedure, shortened: as §1
# Gal(a1-3)Gal(b1-3)GlcNAc = molecular target: Gal(a1-3)Gal(b1-3)GlcNAc
# Procedure, shortened: as §1
# [34] = molecular target: Gal(a1-3)Gal(b1-3)GlcNAc(b1-2)Man
# Procedure, shortened: as §1
# [35] = molecular target: Gal(a1-3)Gal(b1-3)GlcNAc(b1-2)Man(a1-3)[Gal(a1-3)Gal(b1-3)GlcNAc(b1-2)Man(a1-6)]Man(b1-4)GlcNAc(b1-4)GlcNAc
# Procedure, shortened: as §1
# [36] = molecular target: Gal(a1-3)Gal(b1-3)GlcNAc(b1-3)GalNAc
# Procedure, shortened: as §1
# [37] = molecular target: Gal(a1-3)Gal(b1-3)GlcNAc(b1-6)GalNAc
# Procedure, shortened: as §1
# [38] = molecular target: Gal(a1-3)Gal(b1-3)[Fuc(a1-4)]GlcNAc(b1-2)Man(a1-3)[Gal(a1-3)Gal(b1-3)[Fuc(a1-4)]GlcNAc(b1-2)Man(a1-6)]Man(b1-4)GlcNAc(b1-4)GlcNAc
# Procedure, shortened: as §1
# Gal(a1-3)Gal(b1-4)Glc = molecular target: Gal(a1-3)Gal(b1-4)Glc
# Procedure, shortened: as §1
binder,measurement,setting,value
B1,glycan array binding signal (z-score),[1],-0.113
same,glycan array binding signal (z-score),[2],-0.117
same,glycan array binding signal (z-score),[3],-0.112
same,glycan array binding signal (z-score),[4],-0.117
same,glycan array binding signal (z-score),[5],-0.112
same,glycan array binding signal (z-score),[6],-0.08
same,glycan array binding signal (z-score),[7],0.043
same,glycan array binding signal (z-score),[8],-0.117
same,glycan array binding signal (z-score),[9],-0.107
same,glycan array binding signal (z-score),[10],-0.108
same,glycan array binding signal (z-score),[11],-0.103
same,glycan array binding signal (z-score),[12],-0.116
same,glycan array binding signal (z-score),[13],-0.111
same,glycan array binding signal (z-score),[14],-0.102
same,glycan array binding signal (z-score),[15],-0.116
same,glycan array binding signal (z-score),[16],-0.117
same,glycan array binding signal (z-score),Fuc(a1-3)GlcNAc,-0.12
same,glycan array binding signal (z-score),[17],-0.105
same,glycan array binding signal (z-score),[18],-0.116
same,glycan array binding signal (z-score),[19],-0.11
same,glycan array binding signal (z-score),[20],-0.103
same,glycan array binding signal (z-score),[21],-0.079
same,glycan array binding signal (z-score),[22],-0.111
same,glycan array binding signal (z-score),[23],-0.102
same,glycan array binding signal (z-score),[24],-0.106
same,glycan array binding signal (z-score),[25],-0.111
same,glycan array binding signal (z-score),[26],-0.111
same,glycan array binding signal (z-score),[27],-0.044
same,glycan array binding signal (z-score),[28],-0.116
same,glycan array binding signal (z-score),[29],-0.117
same,glycan array binding signal (z-score),[30],-0.116
same,glycan array binding signal (z-score),[31],-0.115
same,glycan array binding signal (z-score),[32],-0.105
same,glycan array binding signal (z-score),[33],-0.111
same,glycan array binding signal (z-score),Fuc(a1-4)GlcNAc,-0.116
same,glycan array binding signal (z-score),Fuc(b1-3)GlcNAc,-0.112
same,glycan array binding signal (z-score),Gal(a1-2)Gal,-0.113
same,glycan array binding signal (z-score),Gal(a1-3)Gal,-0.116
same,glycan array binding signal (z-score),Gal(a1-3)Gal(b1-3)GlcNAc,-0.116
same,glycan array binding signal (z-score),[34],-0.113
same,glycan array binding signal (z-score),[35],-0.056
same,glycan array binding signal (z-score),[36],-0.112
same,glycan array binding signal (z-score),[37],-0.117
same,glycan array binding signal (z-score),[38],0.499
same,glycan array binding signal (z-score),Gal(a1-3)Gal(b1-4)Glc,-0.11
